# PubChem BioAssay (Tox21)
# Where “and” joins values, the source holds several entries; their conditions need not be identical. Equal values may be shown once. The inconclusive results got no clear call from the source; some entries with a clear call stand among them for comparison. Potencies of inconclusive entries are doubtful fits and often do not repeat. Where a structure was tested more than once in an assay, its records may differ in their call. Calls of active or inactive are those of the source. Unless noted, calls follow the shape of the dose curve; as a rule, active = well fitted curve in the direction sought with a large enough effect in the repeat runs; inconclusive = weak or mixed curves; inactive = no such curve, though single readings can be large; an effect the other way counts as inactive or inconclusive.
# Assays:
# [1] = molecular target: Nuclear receptor subfamily 1 group I member 3 (Homo sapiens) (UniProt Q14994); assay: qHTS assay to identify small molecule antagonists of the constitutive androstane receptor (CAR) signaling pathway (AID 1224838);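 also: HepG2 cells stably expressing hCAR with CYP2B6 luciferase reporter stimulated by CITCO; nearly all actives have a fitted effect of over 40% in size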
# Outline: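 Antagonist mode used CITCO at a final 50 nM to activate CAR in human hepatoma HepG2 cells carrying stable hCAR and a 2.2 kb CYP2B6 promoter-luciferase construct. Compounds were tested at 15 concentrations over 24 h, with luminescence as the end point.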
# [2] = molecular target: Nuclear receptor subfamily 1 group I member 3 (Homo sapiens) (UniProt Q14994); assay: qHTS assay to identify small molecule agonists of the constitutive androstane receptor (CAR) signaling pathway (AID 1224839); also: nearly all actives have a fitted effect of over 15% in size
# Outline: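 Cells were plated and incubated 4 hrs, then dosed with compounds at 15 concentrations. PK11195 was added to 0.75 uM final. After 24 hrs at 37 C, luciferase luminescence was measured.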
# [3] = qHTS assay to identify small molecule antagonists of the estrogen related receptor signaling pathway with the pleiotropic PPARgamma coactivator (PGC) from Tox21 10K library - cell viability counter screen (AID 1224840; active = well fitted cell-killing curve with a large enough effect in the repeat runs, not every such curve was filed as active; inconclusive = weak or mixed curves, or effect the other way; inactive = no such curve, though single readings can be large or run the other way; also: nearly all actives have a fitted effect of over 40% in size)
# Outline: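 Multiplexed viability counter screen in the PGC/ERR cell line: cells treated with DMSO-dissolved compounds for 17.5 hours at 37 C, then viability measured as CellTiter-Fluor fluorescence.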
# [4] = qHTS assay to identify small molecule antagonists of the estrogen related receptor signaling pathway with the pleiotropic PPARgamma coactivator (PGC) from Tox21 10K library (AID 1224841; call rule not given here; also: actives are mostly falling curves and most rising ones were filed inactive; nearly all actives have a fitted effect of over 50% in size)
# Outline: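 Steps: plate 2,000 PGC/ERR cells per well; incubate 6 h at 37 C with 5% CO2; transfer compounds from DMSO stocks by pin tool; incubate 18 h at 37 C; add One-Glo; measure luminescence 30 min later.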
# [5] = molecular target: Thyrotropin receptor (Homo sapiens) (UniProt P16473); assay: qHTS assay to identify small molecule agonists of the thyroid stimulating hormone receptor (TSHR) signaling pathway (AID 1224843; calls by dose curve; also: nearly all actives have a fitted effect of over 45% in size; as to activation: % is scaled to controls: 0 for no effect and ±100 for the full control effect); conditions: TSHR-HEK293 cells, cAMP HTRF, agonist mode, 30 min; activation: at 92.4 µM (top of the series) unless noted
# Outline: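 Agonist-mode screen: TSHR HEK293 cells received test chemicals for half an hour at room temperature, then HTRF cAMP detection reagents for one hour prior to fluorescence measurement. Each chemical ran as a 15-concentration series, triplicated.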
# [6] = qHTS assay to identify small molecule agonists of the hypoxia (HIF-1) signaling pathway - cell viability counter screen (AID 1224844; calls by dose curve; also: nearly all actives have a fitted effect of over 50% in size)
# Outline: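 Cytotoxicity was measured in parallel with the HRE-driven beta-lactamase readout: after 17 hrs of compound exposure at 37C, HRE-bla ME-180 cells received CellTiter-Glo and luminescence was recorded 30 min later.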
# [7] = qHTS assay to identify small molecule agonists of H2AX (AID 1224845; active = well fitted activation curve with a large enough effect in the signal ratio in the repeat runs, not every such curve was filed as active; inconclusive = weak or mixed curves; the % refers to the signal ratio; as to activation (H2AX phosphorylation): % is scaled to controls: 0 for no effect and ±100 for the full control effect); conditions: CHO-K1 phospho-H2AX Ser139 HTRF, 3 h; activation (H2AX phosphorylation): at 154 µM (top of the series)
# Outline: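 Wild-type CHO-K1 cells, plated overnight, exposed 3hr at 37C to 15 concentrations (0.76% DMSO final). Lysed, then HTRF anti-pH2AX (S139) cryptate and anti-H2AX-d2 antibodies, 24 hr room temperature; 665/620 nm emission read.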
# [8] = qHTS assay to identify small molecule agonists of H2AX - cell viability counter screen (AID 1224847; calls by dose curve; also: nearly all actives have a fitted effect of over 30% in size)
# Outline: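 Cytotoxicity counter screen in wild-type CHO-K1 cells: a 3 hr compound treatment at 37C across 15 concentrations, followed by CellTiter-Glo luminescence to gauge viable cells.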
# [9] = qHTS RealTime-Glo MT Cell Viability Assay in HEK293 cells - 32 hour (AID 1224868); also: nearly all actives have a fitted effect of over 50% in size
# Outline: (§1)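 Luminescence generated by NanoLuc from substrate produced by living HEK293 cells served as the viability signal. Each value reflects the reading at its stated time point during continuous 40 h compound exposure at 37 C.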
# [10] = qHTS RealTime-Glo MT Cell Viability Assay in HepG2 cells - 40 hour (AID 1224870); also: nearly all actives have a fitted effect of over 50% in size
# Outline: (§2)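 HepG2 cells (600/well) mixed with RealTime-Glo MT reagent, settled 5 h at 37 C/5% CO2 before compound addition. Nonlytic NanoLuc luminescence from viable-cell prosubstrate reduction read repeatedly during 40 h treatment at 37 C.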
# [11] = A CellTox Green Cytotoxicity Assay to monitor cytotoxicity in HEK293 cells - 40 hour (AID 1224871); also: nearly all actives have a fitted effect of over 45% in size
# Outline: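 Cells (HEK293, 600/well) and dye reagent are dispensed together. After 5 h at 37 C, 23 nL compound is pinned in. Plates stay at 37 C for 40 h with fluorescence read at 0h, 8h, 16h, 24h, 32h and 40h.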
# [12] = qHTS RealTime-Glo MT Cell Viability Assay in HEK293 cells - 16 hour (AID 1224872); also: nearly all actives have a fitted effect of over 50% in size
# Outline: as §1
# [13] = qHTS RealTime-Glo MT Cell Viability Assay in HepG2 cells - 8 hour (AID 1224873); also: nearly all actives have a fitted effect of over 55% in size
# Outline: as §2
# [14] = qHTS RealTime-Glo MT Cell Viability Assay in HEK293 cells - 40 hour (AID 1224874); conditions: RealTime-Glo luminescence; max response: stronger effect = lower value; also: nearly all actives have a fitted effect of over 50% in size
# Outline: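 Real-time viability in HEK293: signal arises when living cells convert a prosubstrate for NanoLuc in the medium, so luminescence tracks viable cell number. Compound (23 nL, DMSO) added 5 h post-seeding; kinetic reads at 0–40 h, 37 C.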
# [15] = qHTS assay to identify small molecule agonists of the hypoxia (HIF-1) signaling pathway (AID 1224846; active = well fitted activation curve with a large enough effect in the signal ratio in the repeat runs, not every such curve was filed as active; inconclusive = weak or mixed curves; the % refers to the signal ratio); conditions: HRE-bla ME-180 cells, beta-lactamase ratio, 17 h; activation: at 76.8 µM (top of the series) unless noted
# Outline: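 Compounds from the Tox21 10K library, dissolved in DMSO, are tested for induction of a hypoxia response element–controlled beta-lactamase reporter in ME-180 cells. Exposure lasts 17 hrs at 37C after a 5 hr settling period, followed by CCF4-AM FRET substrate.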
# [16] = qHTS RealTime-Glo MT Cell Viability Assay in HepG2 cells - 24 hour (AID 1224867); also: nearly all actives have a fitted effect of over 50% in size
# Outline: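 Tox21 10K library screened in qHTS format on HepG2 cells carrying RealTime-Glo reagents. Compounds were added after a 5 h preincubation, and the luminescent signal from continuous culture was measured repeatedly during 40 h treatment.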
# [17] = qHTS assay to identify small molecule antagonists of the estrogen related receptor (ERR) signaling pathway from Tox21 library (AID 1224848); also: nearly all actives have a fitted effect of over 50% in size
# Outline: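 Quantitative high-throughput format: ERR reporter cells (2,000/well) pre-incubated 6 h, treated 18 h at 37 C with compounds in DMSO alongside positive and negative controls, then read by ONE-Glo luminescence.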
# Potency is read from the fitted curve at half-maximal effect; tags tell the direction and shape of the fitted curve or compound fluorescence and quenching.
# Sequence of UniProt P16473 (P16473 whole entry, looked up): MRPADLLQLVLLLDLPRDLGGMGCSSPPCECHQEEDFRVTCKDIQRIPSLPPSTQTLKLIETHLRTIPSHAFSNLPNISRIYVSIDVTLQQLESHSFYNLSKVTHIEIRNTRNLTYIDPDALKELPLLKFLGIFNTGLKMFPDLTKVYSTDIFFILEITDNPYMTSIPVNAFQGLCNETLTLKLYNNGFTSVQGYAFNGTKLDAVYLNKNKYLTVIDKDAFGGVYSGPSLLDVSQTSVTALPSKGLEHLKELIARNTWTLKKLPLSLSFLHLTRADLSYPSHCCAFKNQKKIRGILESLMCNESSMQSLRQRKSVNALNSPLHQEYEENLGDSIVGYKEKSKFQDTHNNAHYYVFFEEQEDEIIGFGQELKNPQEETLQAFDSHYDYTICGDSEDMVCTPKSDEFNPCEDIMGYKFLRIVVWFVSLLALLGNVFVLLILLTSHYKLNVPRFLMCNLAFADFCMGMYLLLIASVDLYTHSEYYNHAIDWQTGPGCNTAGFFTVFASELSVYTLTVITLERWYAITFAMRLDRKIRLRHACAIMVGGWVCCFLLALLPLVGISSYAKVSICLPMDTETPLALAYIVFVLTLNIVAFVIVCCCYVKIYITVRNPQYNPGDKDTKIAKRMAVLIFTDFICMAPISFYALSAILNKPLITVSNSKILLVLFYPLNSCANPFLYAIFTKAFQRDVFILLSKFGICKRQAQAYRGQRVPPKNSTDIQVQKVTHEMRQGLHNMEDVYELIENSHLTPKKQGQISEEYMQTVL
# Sequence of UniProt Q14994 (Q14994 whole entry, looked up): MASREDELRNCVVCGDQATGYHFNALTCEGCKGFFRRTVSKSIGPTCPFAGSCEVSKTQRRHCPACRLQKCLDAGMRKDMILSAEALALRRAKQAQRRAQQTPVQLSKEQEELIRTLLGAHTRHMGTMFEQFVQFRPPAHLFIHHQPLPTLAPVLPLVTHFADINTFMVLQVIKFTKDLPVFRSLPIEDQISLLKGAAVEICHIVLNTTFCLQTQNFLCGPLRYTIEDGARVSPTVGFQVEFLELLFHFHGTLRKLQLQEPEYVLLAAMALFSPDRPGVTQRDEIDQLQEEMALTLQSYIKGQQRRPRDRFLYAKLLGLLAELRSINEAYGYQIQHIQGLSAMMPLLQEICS
structure (smiles),measurement,setting,value
Oc1ccc(C(c2ccc(O)cc2)(C(F)(F)F)C(F)(F)F)cc1,Potency,[1],"inconclusive: 682 nM [inhibitor, full curve] and inconclusive: 969 nM [inhibitor, full curve]"
same,Potency,[2],active: 4.31 µM and active: 5.45 µM
same,Potency,[3],"inconclusive: 68.2 µM [cytotoxic, single point] and inconclusive: 68.6 µM [cytotoxic]"
same,Potency,[4],"inconclusive: 43.3 µM [falling, partial curve]"
same,Potency,[5],"active: 30.5 µM and inconclusive: 48.6 µM [activator, partial curve]"
same,Potency,[6],"inconclusive: 61.4 µM [cytotoxic, single point]"
same,Potency,[7],"inconclusive: 100 µM [activator, partial curve] and inconclusive: 113 µM [activator]"
same,Potency,[8],"active: 113 µM and inconclusive: 113 µM [cytotoxic, single point]"
same,Potency,[9],"inconclusive: 43.6 µM [cytotoxic, partial curve]"
same,Potency,[10],"inconclusive: 54.9 µM [falling, partial curve, poor fit]"
same,Potency,[11],active: 43.4 µM
same,Potency,[12],"inconclusive: 43.4 µM [cytotoxic, partial curve] and inconclusive: 49 µM [cytotoxic, single point]"
same,Potency,[13],"inconclusive: 54.9 µM [falling, single point]"
same,Potency,[14],"inconclusive: 49 µM [cytotoxic, partial curve]"
CCOP(=S)(OCC)Oc1cc(C)nc(C(C)C)n1,Potency,[1],inactive
same,Potency,[2],"inconclusive: 30.6 µM [activator, partial curve] and inconclusive: 26.6 µM [activator, partial curve]"
same,activation (H2AX phosphorylation),[7],inconclusive: 7.56%
C[CH2][Hg][S]c1ccccc1C(=O)O,Potency,[1],active: 12.2 µM and active: 6.68 µM
same,Potency,[5],"inconclusive: 4.86 µM [inhibitor, full curve, poor fit]"
same,Potency,[6],active: 616 nM and active: 1.9 µM
same,Potency,[7],active: 4.01 µM
same,Potency,[15],"inconclusive: 977 nM [falling, full curve] and inconclusive: 2.13 µM [falling, full curve]"
same,Potency,[8],active: 17.9 µM and active: 24.7 µM
same,Potency,[16],active: 2.19 µM and active: 2.13 µM
same,Potency,[11],active: 6.92 µM and active: 4.77 µM
same,Potency,[12],active: 1.23 µM and active: 2.13 µM
same,Potency,[13],active: 3.47 µM and active: 2.13 µM
CCC(C)c1ccc(O)cc1 (configuration not stated),Potency,[1],inactive
same,Potency,[8],"inconclusive: 114 µM [cytotoxic, single point] and inconclusive: 127 µM [cytotoxic, single point]"
same,Potency,[9],inactive
same,Potency,[12],inactive
Oc1cc(Cl)c(Cl)c(Cl)c1,Potency,[1],"inconclusive: 65 µM [inhibitor, single point]"
same,Potency,[5],inactive
same,Potency,[15],inconclusive: 46.5 µM
same,Potency,[17],active: 29.1 µM
same,Potency,[9],"inconclusive: 52.1 µM [cytotoxic, single point]"
same,Potency,[11],active: 13.1 µM
same,Potency,[12],"inconclusive: 52.1 µM [cytotoxic, single point]"
same,Potency,[14],"inconclusive: 52.1 µM [cytotoxic, single point]"
COP(=S)(OC)Oc1ccc([N+](=O)[O-])cc1Cl,Potency,[2],"inconclusive: 54.5 µM [activator, partial curve, poor fit]"
same,Potency,[3],"inconclusive: 30.6 µM [cytotoxic, partial curve]"
same,Potency,[4],"inconclusive: 61.1 µM [falling, partial curve, poor fit]"
same,Potency,[17],inconclusive: 61.1 µM [inhibitor]
same,Potency,[12],"inconclusive: 54.9 µM [cytotoxic, single point]"
COc1cccc(C(=O)CCN[C@@H](C)[C@H](O)c2ccccc2)c1,Potency,[1],"inconclusive: 18.8 µM [inhibitor, partial curve]"
same,Potency,[6],"inconclusive: 26.8 µM [cytotoxic, single point]"
same,Potency,[7],"inconclusive: 0.552 µM [falling, single point]"
same,Potency,[15],inconclusive: 26.8 µM
same,Potency,[8],"inconclusive: 55.2 µM [rising, single point]"
same,Potency,[16],"inconclusive: 26.8 µM [falling, single point]"
same,Potency,[9],"inconclusive: 26.8 µM [cytotoxic, single point]"
same,Potency,[10],active: 23.9 µM
same,Potency,[11],"inconclusive: 26.8 µM [activator, single point]"
same,Potency,[12],"inconclusive: 30.1 µM [cytotoxic, single point]"
same,Potency,[14],"inconclusive: 26.8 µM [cytotoxic, single point]"
O=C1c2ccccc2C(=O)N1SC(Cl)(Cl)Cl,Potency,[1],active: 19.1 µM and active: 15.4 µM
same,Potency,[6],active: 3.83 µM and active: 7.76 µM
same,Potency,[7],active: 9.93 µM and active: 16 µM
same,Potency,[8],"inconclusive: 113 µM [cytotoxic, single point]"
same,Potency,[11],active: 10.8 µM and active: 11 µM
same,Potency,[13],"inconclusive: 24.2 µM [falling, partial curve] and inconclusive: 15.5 µM [falling, partial curve]"
same,Potency,[14],active: 6.82 µM and active: 9.77 µM
